In all, about 340,000 compounds went through this assay and about 6,900 (2%) were called active. Rule as the data show it: active = inhibition above about 30%; inactive = below that, where a call was filed. Only a part is listed here, and it is no random draw. Where no call is shown, the source filed none.
Molecular target: D(2) dopamine receptor (Homo sapiens) (UniProt P14416)
Assay: HTS Assay for Allosteric Antagonists of the Human D2 Dopamine Receptor: Primary Screen for Antagonists; also: 0% is about no effect
Conditions: HEK293 TREx D2 cells, calcium flux, dopamine EC80; at 10 µM; stronger effect = higher value
Outline: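 Tetracycline-induced HEK293 T-REx cells expressing D2 force-coupled to calcium signalling were dye-loaded, exposed to compound for 180 s, then challenged with an EC80 of dopamine; calcium flux was followed kinetically for a further 180 s.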

Chain of UniProt P14416 (P14416 whole entry, looked up): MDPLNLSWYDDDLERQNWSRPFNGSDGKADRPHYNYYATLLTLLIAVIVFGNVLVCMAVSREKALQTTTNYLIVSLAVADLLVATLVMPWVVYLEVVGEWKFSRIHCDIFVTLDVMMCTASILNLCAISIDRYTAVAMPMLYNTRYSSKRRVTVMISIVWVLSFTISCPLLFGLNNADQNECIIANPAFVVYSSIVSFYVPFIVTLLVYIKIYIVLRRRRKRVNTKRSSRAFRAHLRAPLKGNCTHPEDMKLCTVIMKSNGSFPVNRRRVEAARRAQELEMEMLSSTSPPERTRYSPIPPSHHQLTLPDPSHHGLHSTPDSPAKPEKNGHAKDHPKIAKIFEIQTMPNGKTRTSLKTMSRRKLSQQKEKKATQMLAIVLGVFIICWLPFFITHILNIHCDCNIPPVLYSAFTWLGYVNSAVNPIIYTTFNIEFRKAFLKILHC

Row | SMILES | inhibition
1 | Cc1ccc(NC(=O)Nc2nnc(N3CCCC3)s2)cc1C | 22.5%
2 | Cn1c(=O)c(C(=O)O)nn(-c2ccccc2)c1=O | 8.68%
3 | COC(=O)c1ccc(C(=O)OC)c(NC(=O)CN(c2ccccc2)S(=O)(=O)N(C)C)c1 | 2.99%
4 | COc1cccc(CNC(=O)CSC2=Nc3ccccc3N=C(c3ccc(F)cc3)C2)c1 | 11.8%
5 | CCOc1ccccc1CNC(=O)C1CCCN(c2nnc(C)c3c(C)n(-c4ccccc4)nc23)C1 (stereo unspecified) | -12.7%
6 | Cc1c(C(=O)N2CCC(C)CC2)c(S(=O)(=O)N(Cc2ccccc2)C(C)(C)C)c(C)n1C | 5.2%
7 | CN1CCN(C(=O)C(=O)Nc2c3c(nn2-c2ccc(Cl)cc2)CSC3)CC1 | -1.75%
8 | CCN(C(=O)c1ccc2c(c1)OCO2)C1CCS(=O)(=O)C1 (stereo unspecified) | active: 38.5%
9 | N#C/C(=C\C=C\c1ccccc1)C(=O)NCc1ccco1 | active: 36.9%
10 | COc1ccc(OC)c2sc(N3CCN(C(=O)c4ccco4)CC3)nc12 | -5.22%
11 | COc1ccc(/C=C/C(=O)c2ccc(C(=O)/C=C/c3ccc(OC)c(OC)c3)cc2)cc1OC | active: 33.6%
12 | COc1cc(NC(=O)N2CCc3c(sc4c3CCCC4)C2c2ccccc2)cc(OC)c1OC (stereo unspecified) | 5.66%
13 | CCOc1ccc(CNC(=O)CSc2nnc(C)c3c(C)n(-c4ccc(Cl)cc4)nc23)cc1 | -0.993%
14 | O=C(CN1C(=O)COc2ccc(S(=O)(=O)NC3CCCC3)cc21)NCc1ccc(Cl)cc1 | -3.84%
15 | CCN(CC)CCSc1c(C(C)C)cnc2c1c(=O)n(C)c(=O)n2C | 18.3%
16 | COc1ccc(CNC(=O)CN2C(=O)CC(c3ccc(C)c(C)c3)=Nc3ccccc32)cc1 | 8.3%
17 | Cc1cc(C)c(-c2n[nH]c3c2C(c2ccccc2F)N(Cc2ccco2)C3=O)c(O)c1 (stereo unspecified) | 18.4%
18 | COc1ccc(-c2cc(C(F)(F)F)nc(SCCC(=O)Nc3ccc(OC)c(OC)c3)n2)cc1 | 14.1%
19 | CCCCc1nnc(SCc2cc(=O)c3cc(F)ccc3[nH]2)n1C | -20.1%
20 | Cc1ccc(NC(=O)c2sc3nc(-c4cccs4)ccc3c2N)cc1F | 5.16%
21 | CC(C)(C)NC(=O)C1CCN(c2nc3ccccc3nc2C(F)(F)F)CC1 | -0.47%
22 | O=C(NCC(c1cccs1)N1CCOCC1)c1ccccc1NS(=O)(=O)c1cc([N+](=O)[O-])ccc1Cl (stereo unspecified) | active: 33%
23 | Cc1ccc(-n2c(=O)c3sc4ccccc4c3n(C)c2=O)cc1F | 11.4%
24 | Cc1ccc(C)c(NC(=O)c2ccc3c(c2)CCCN3S(C)(=O)=O)c1 | -8.71%

Row | SMILES | inhibition
25 | COc1cccc(NC(=O)c2oc3ccccc3c2NC(=O)c2ccc(F)c(F)c2)c1 | 1.06%
26 | CCCCOC(=O)c1ccc(OC(=O)c2cccnc2)cc1 | active: 30.5%
27 | Cc1oc2cc3oc(=O)c(CC(=O)NCc4ccccc4)c(C)c3cc2c1C | 9.63%
28 | Cc1ccc(C(=O)N2CCCCC2)cc1NC(=O)c1nsc2ccccc12 | -0.401%
29 | COc1ccc(S(=O)(=O)N2CCC(N3CCN(Cc4ccc(F)cc4)C(=O)C3=O)CC2)cc1 | 12.9%
30 | CCc1ccc(C(=O)c2cn(CC(=O)Nc3cc(OC)ccc3OC)c3nc(C)ccc3c2=O)cc1 | -0.701%
31 | O=C(Nc1ccccc1C(F)(F)F)C1CCN(S(=O)(=O)Cc2ccccc2)CC1 | 13.9%
32 | O=C(CSc1nc2nccnc2c(=O)n1CCc1c[nH]c2ccccc12)Nc1ccccc1 | -19.1%
33 | O=C(NC1CC(=O)N(c2ccccc2)C1)C(c1ccccc1)c1ccccc1 (stereo unspecified) | 14.9%
34 | COc1ccc(NS(=O)(=O)c2ccc(N/N=C(\C)c3ccncc3)c([N+](=O)[O-])c2)cc1 | active: 79.3%
35 | COC(=O)c1c(NC(=O)/C(C#N)=C/c2ccc(OC)cc2)sc2c1CCC2 | -3.14%
36 | COc1ccc(CN2C3CCCC2CC(NC(=O)c2cccc(F)c2)C3)cc1 (stereo unspecified) | active: 80.1%
37 | Cc1cc(C)cc(NC(=O)N2CCC(CN3CCCCCC3)CC2)c1 | 7.22%
38 | CCc1cc2c(=O)oc(-c3ccc(Br)cc3)nc2s1 | active: 32.8%
39 | CCC(=O)N1c2ccc(S(=O)(=O)CCC(=O)N3CCN(c4cc(C)ccc4C)CC3)cc2CC1C (stereo unspecified) | 26.6%
40 | O=C1CN=C(Nc2ccccc2Cl)N1c1ccccc1 | active: 36.4%
41 | CCCSc1ncc(Cl)c(C(=O)Nc2c(C(=O)c3ccc(C)cc3)oc3ccccc23)n1 | 16.4%
42 | CCOc1ccc2nc(NC(=O)c3nc(SCc4ccccc4C)ncc3Cl)sc2c1 | -4.1%
43 | Cn1c(=O)c2c(nc(SCC(=O)Nc3ccc(F)cc3)n2Cc2ccccc2F)n(C)c1=O | 13%
44 | COc1c(Cl)cc(C(=O)N(Cc2ccccc2F)C2CCS(=O)(=O)C2)cc1Cl (stereo unspecified) | 5.42%
45 | CCC(Sc1nc(-c2ccc(F)cc2)nc2c1Cc1c(CO)cnc(C)c1O2)C(=O)Nc1ccc(F)cc1 (stereo unspecified) | 3.47%
46 | CC(C)(C)OC(=O)N1CCc2nc(N3CCN(c4ncccn4)CC3)ncc2C1 | 5.53%
47 | CCS(=O)(=O)N1CCc2cc(C(=O)N3CCN(c4ccccc4OC)CC3)ccc21 | -4.65%
48 | COc1ccc(-n2c(SCC(N)=O)nc3c(oc4ccccc43)c2=O)cc1 | 10.8%

Row | SMILES | inhibition
49 | Cc1ccc(-c2onc(C)c2C)cc1S(=O)(=O)N1CCOc2ccc(Cl)cc21 | 9.55%
50 | CC(C)CN1CCc2nc(Nc3ccc(F)cc3F)ncc2C1 | -13.9%
51 | O=C(Cc1cccs1)Nc1c(C(=O)Nc2ccc(F)cc2)oc2ccccc12 | -7.1%
52 | CC(=O)N1CCc2c(sc3c2c(=O)n(Cc2ccccc2)c(=O)n3Cc2ccccc2F)C1 | -14.7%
53 | O=C(CN1CCN(Cc2ccccc2Cl)C1=O)NC1CCCCCCC1 | active: 31%
54 | COc1cc(/C=C(\C#N)c2nc3ccccc3[nH]2)ccc1OCc1ccccc1F | 8.34%
55 | COc1ccc(S(=O)(=O)NCCSc2nnnn2-c2ccccc2)cc1OC | -2.33%
56 | CCN(Cc1ccccc1)C(=O)c1cc(-c2ccccc2)n[nH]1 | 10.9%
57 | Cc1ccc(Cl)cc1N1CCN(C(=O)CN2C(=O)COc3ccc(S(=O)(=O)N4CCCCCC4)cc32)CC1 | -3.62%
58 | CC(C)CCNC(=O)c1ccc2c(c1)NC(=O)C(C(C)C)N2 (stereo unspecified) | -21.7%
59 | Cc1c(C)n(Cc2ccccc2)c2ccc(C(=O)N3CCN(c4ccc(F)cc4)CC3)cc12 | -2.61%
60 | Cc1ccc(NC(=O)N2CCCC2C(=O)NCC2CCCCC2)cc1 (stereo unspecified) | active: 35.3%
61 | CCN(CC)S(=O)(=O)c1ccc2c(c1)N(CC(=O)N1CCN(c3ccc(OC)cc3)CC1)C(=O)CO2 | 9.37%
62 | Cn1cnc(S(=O)(=O)N2CCCC(C(=O)NCc3ccc(Cl)cc3)C2)c1 (stereo unspecified) | -19.2%
63 | Cc1ccccc1Nc1c(-c2cccc(Cl)c2)nc2ncccn12 | -1.08%
64 | CCn1c2ccccc2c2cc(CN3CCN(Cc4cc(OC)c(O)c(OC)c4)CC3)ccc21 | -7.59%
65 | Cn1nnc(NC(=S)NC(=O)c2cc(Cl)ccc2Cl)n1 | active: 30.6%
66 | Cc1ccc(C)c(NC(=O)Cn2nc(C)c3nn(-c4ccc(Cl)cc4)c(C)c3c2=O)c1 | 21.7%
67 | Cc1ccc(NC(=O)c2sc3ncn(Cc4cccc(F)c4)c(=O)c3c2C)c(Br)c1 | 8.53%
68 | O=C(Nc1cccc(Cl)c1Cl)c1ccc2c(c1)N(Cc1cccc(Cl)c1)C(=O)c1ccccc1S2=O (stereo unspecified) | 13%
69 | COc1cc2[nH]c(=O)n(Cc3ccc(C(=O)N4CCN(c5ccc(Cl)cc5)CC4)cc3)c(=O)c2cc1OC | -7.37%
70 | CCOc1ccccc1NC(=O)CCCc1nc(-c2ccccc2Cl)no1 | 7.62%
71 | COc1ccc(CNC(=O)CCS(=O)(=O)c2cc(Br)cc3c2N(C(C)=O)C(C)C3)cc1 (stereo unspecified) | -25.3%
72 | CCc1cccc(NC(=O)CSc2nncn3c2cc2sccc23)c1 | -5.87%

Row | SMILES | inhibition
73 | CCOc1ccc(CCNC(=O)c2cc3c(=O)n(CC)c4ccccc4c3s2)cc1OCC | -25.9%
74 | CCCc1nnc(NC(=O)c2cc(=O)c3ccccc3o2)s1 | 11.8%
75 | CCOC(=O)N1CCC(N2CCCC(C(=O)c3cccc(OC)c3)C2)CC1 (stereo unspecified) | active: 40.1%
76 | CCOC(=O)c1c(C)n(-c2ccccc2)c2ccc(OC(=O)COc3ccccc3)cc12 | -6.73%
77 | COc1ccc(N2CCN(C(=O)C3CCCN(C(=O)c4cc5sccc5n4C)C3)CC2)cc1 (stereo unspecified) | -4.04%
78 | COc1ccc(C)cc1NC(=O)c1cc(S(=O)(=O)N2CCOCC2)cn1C | -15%
79 | O=C(CSc1nc(=O)[nH]c2c1CCCC2)NCc1ccccc1Cl | 0.98%
80 | CC1=C(C(=O)Nc2cccnc2)C(c2cccc(F)c2)n2nc(SCc3ccccc3F)nc2N1 (stereo unspecified) | 18.5%
81 | CCNC(=O)c1c(NC(=O)Cc2coc3ccc(CC)cc23)sc2c1CCCC2 | -4.35%
82 | CC(=C/c1ccccc1)/C=N/NC(=O)c1cc(C)oc1C | active: 36.9%
83 | COc1cccc(C2C(C(=O)Nc3ccc(Cl)cc3)=C(C)Nc3nc4ccccc4n32)c1OC (stereo unspecified) | 3.51%
84 | CC(=O)N1CCCc2cc(S(=O)(=O)N3CCN(c4ccccc4F)CC3)ccc21 | -21.1%
85 | CC(C)(C)C(=O)OCc1nc(-c2ccc(O)c(O)c2)cs1 | active: 93.7%
86 | CCCCNC(=O)c1c(-c2ccccc2)c(-c2ccccc2)nn(C)c1=O | -21.9%
87 | Cc1ccc2c(c1)N(C(=O)N1CCC(C(=O)NCc3ccccc3C)CC1)CC(C)O2 (stereo unspecified) | -18.8%
88 | Cc1nc2sccn2c(=O)c1CCN1CCC(=C(c2ccccc2)c2ccc(F)cc2)CC1 | active: 73.5%
89 | CC1CCCCN1C(=O)NC12CC3CC(CC(C3)C1)C2 (stereo unspecified) | active: 33.7%
90 | CCNC(=O)c1ccc2c(c1)nc1n2CCCCC1 | -22.2%
91 | Cc1c(CNC2CCCCC2)c(C(=O)O)c(C)n1Cc1ccccc1F | -2.05%
92 | Cc1ccccc1OCc1nc2c3cnn(-c4cccc(F)c4)c3ncn2n1 | 0.957%
93 | O=C(Cn1cc(C(=O)C(F)(F)F)c2ccccc21)N1CCCCCC1 | -0.6%
94 | CC1(C)N=C(SCc2ccc(F)cc2)c2ccccc2N1 | 10.8%
95 | O=C(COc1ccc2ccccc2c1)NC1CC(=O)N(c2ccc(F)cc2)C1 (stereo unspecified) | -11.5%
96 | Cc1ccccc1CN1c2ccccc2-c2nc(SCC(=O)c3ccccc3)ncc2S1(=O)=O | 3.98%

Reference: PubChem BioAssay AID485344 (National Center for Advancing Translational Sciences (NCATS), 2010)
